Here are results for 84 compounds from PubChem BioAssay (NCI).

Where “and” joins values, the source holds several entries; their conditions need not be identical. Equal values may be shown once.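 These data come from cells grown in 96-well plates and exposed to compound for 48 hours at five concentrations. Abbreviation: GI50, concentration required for 50% inhibition of growth. TGI marks complete inhibition of growth.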 Peptide text beside a SMILES is read from it.

In this assay the test system is NCI-H322M lung. Description: inhibition of tumour cell growth, NCI panel, 48 h.
As to `Cc1ccc(S(=O)(=O)SCc2ccccc2CSS(=O)(=O)c2ccc(C)cc2)cc1`, the TGI is over 100 µM. Same read-out and setting: then `Cc1nc(-c2cc3c(ccc4ccccc43)oc2=O)cc2c1c(=O)oc1ccc3ccccc3c12`, with over 100 µM; and `COc1ccc(/C=C2\SC(c3ccc(OC)cc3)N(NC(=O)Cc3ccccc3)C2=O)cc1` (centres undefined), with over 100 µM; and `CC(C)=C[C@@H]1C[C@H](C)c2c(O)cc(C)c3c2C1=C(C)C(=O)C3=O`, with 25.5 µM. For `CN1CCN(Cc2ccc(NC(=O)c3nc4ccc5[nH]ncc5c4c4c3CCC4)cc2C(F)(F)F)CC1`, the GI50 is 1.11 µM and the TGI is 2.76 µM. For `O=C(CC(=O)Nc1ccccc1O)Nc1ccccc1O`, the TGI was over 100 µM. Take `O=c1cc(O)c2ccccc2o1`: the TGI was over 100 µM. Same read-out and setting: then `O=P(O)(O)C1CCCC(P(=O)(O)O)N1` (centres undefined), with over 100 µM; and `O=C(NCCNCCNCCNC(=O)c1cc(-c2ccccc2)nc2ccccc12)c1cc(-c2ccccc2)nc2ccccc12`, with 14.5 µM; and `CC(C)(C)OC(=O)NC(Cc1ccc(OCc2ccccc2)cn1)C(=O)NCc1ccccc1` (centres undefined), with over 100 µM.

As for `Nc1ncnc2c(C3OC(CO)C(O)C3O)[nH]nc12` (centres undefined), the GI50 is 0.0781 µM; the TGI is 9.51 µM and 11.6 µM. `C/C1=C\[C@H](C)C[C@H](C)OC(=O)C[C@H](c2ccc(O)cc2)NC(=O)[C@H](Cc2ccc(O)c(Br)c2)N(C)C(=O)[C@H](C)NC(=O)[C@@H](C)C1` returned a TGI of over 25 µM. Regarding `Nc1c(C(=O)c2cccc(C#CCN3CCOCC3)c2)cnn1-c1ccc(F)cc1`, the GI50 was over 25 µM and the TGI is over 25 µM. On to `CCC[CH2][Ge]([CH2]CCC)([CH2]CCC)[O]C(=O)C(OC)c1ccccc1` (centres undefined), for which the GI50 is 53 µM and the TGI was over 100 µM. `CN1C(=O)c2c(c3c4ccccc4n(C4OC(CO)C(O)C(O)C4O)c3c3[nH]c4ccccc4c23)C1=O` (centres undefined) yielded a TGI of 11.2 µM. In turn, `NC(CSc1nc2ccccn2c1[N+](=O)[O-])C(=O)O` (centres undefined) showed a TGI of over 100 µM. The compound `Cc1cc(N(CCCCl)CCCCl)ccc1C=Nc1cccc(Cl)c1` returned a TGI of 60.4 µM. The same measure, in the same setting: the result for `COc1ccccc1N1C(=O)CS(=O)(=O)C1c1cccc(Oc2ccccc2)c1` (centres undefined) reads 41.7 µM.

For the compound `Nc1nc(N)c2c(ccc3nccc32)[nH]1`, the GI50 was 2.08 µM and the TGI was found to be 20.2 µM.

As to `C[C@H]1[C@H](C)CC[C@]2(C(=O)O)CC[C@]3(C)C(=CC[C@@H]4[C@@]5(C)CC[C@H](OC(=O)/C=C/c6ccc(O)cc6)C(C)(C)[C@@H]5CC[C@]43C)[C@H]12`, the GI50 is 2.91 µM and the TGI is 44.1 µM. Regarding `Cc1ccccc1-c1c(N)nc(N)nc1C(=O)Nc1nccs1`, the TGI was over 100 µM. As for `O=C(Nc1ccccc1)NS(=O)(=O)c1ccc(N2N=C3c4ccccc4CC3C2c2ccccn2)cc1` (centres undefined), the GI50 was 17.3 µM and the TGI turned out to be 50.7 µM. Take `N#CCN1CCOCCOCCN(CC#N)CCOCCOCC1`: the TGI was over 100 µM. Consider `CCOC(=O)NC`, for which the TGI is over 100 µM.

With `CN(C)CCCNc1ccnc2cc([N+](=O)[O-])ccc12`, the TGI was determined as 46.9 µM. On to `Nc1ccn(C2CC(O)C(CO)O2)c(=O)n1` (centres undefined), for which the GI50 is over 5000 µM and the TGI was over 5000 µM. Compound `Cc1cc(C)n(-c2nc3ccccc3c(=O)n2-c2ccccc2)n1` displayed a TGI of over 100 µM. As to `CCOC(=O)N1N=NC2C3OC(C[C@@]3(C#N)OC(C)=O)[C@H]21` (some centres undefined), the TGI was over 100 µM. For `CCC[CH2][Sn]([CH2]CCC)([O]C(=O)c1cc(OC)c(OC)cc1OC)[O]C(=O)c1cc(OC)c(OC)cc1OC`, the GI50 was 1.74 µM and the TGI turned out to be 4.17 µM. As for `CN1CCCC1=NC#N`, the TGI was over 100 µM. Still for that read-out and setting: the result for `CC(C)(C)OC(=O)NC1CCC[C@H]1O` (some centres undefined) reads over 100 µM. As to `CC(=O)c1nc2ccccc2n1CC(=O)c1ccc(Cl)cc1`, the TGI was over 100 µM. The same measure, in the same setting: the result for `COc1cc2c(cc1Oc1ccc(OC)c3c1CC1c4c(cc(OC)c(OC)c4-3)CCN1C)CC1c3c(cc(OC)c(OC)c3-2)CCN1C` (centres undefined) reads 5.14 µM. Take `N#Cc1cccc(/C=C(/C(=O)c2ccccc2)c2ccccc2)c1`: the GI50 was 9.62 µM and the TGI stood at 24.7 µM. Consider `CC#Cc1cc2c(cc1O)CC[C@@H]1[C@@H]2CC[C@]2(C)[C@@H](O)CC[C@@H]12`, for which the TGI came out at 43 µM. On the same count and under the same terms, then `Cc1nc2ccccc2c(=O)n1NC(=S)Nc1cccc(Cl)c1`, with over 100 µM; and `NCCCCN(CCCN)Cc1ccccc1`, with over 100 µM; and `NC1=CN(Cc2ccccc2)C2=N/C(=C\c3ccccc3)C(=O)N12`, with over 100 µM. Regarding `COc1cc2ccnc3c2c(c1OC)-c1ccc(=O)ccc1-3`, the GI50 was 54.3 µM and the TGI was over 100 µM.

Compound `O=C1c2ccccc2C(=O)c2c1ccc(C(=O)O)c2-c1ccc2ccccc2c1` showed a TGI of over 100 µM. In the case of `Cc1cc2c3ccccc3ccc2[n+]2ccccc12`, the GI50 is 3.38 µM and the TGI turned out to be 32.3 µM. For the compound `CC(=O)C1C(=O)C(=O)N(c2ccccc2N2C(=O)C(=O)C(C(C)=O)C2=O)C1=O` (centres undefined), the TGI was over 100 µM. `C/C(=N\NC(=O)c1ccccc1O)c1cccc(/C(C)=N/NC(=O)c2ccccc2O)n1` returned a TGI of over 100 µM.

In turn, `Nc1ccc(Nc2c3ccccc3nc3ccccc23)cc1` gave a TGI of over 10 µM.

In turn, `CN(C)CC/C(=N\Nc1ccc(Cl)c(Cl)c1)c1ccccc1` gave a TGI of 15.5 µM. As for `CCOC(=O)Cn1c(C)c(/C=N/NC(=O)c2cc3c(ccc4ccccc43)o2)c2ccccc21`, the GI50 is 0.941 µM and the TGI turned out to be 16.8 µM. `COCOCC1CCCN1CN1CCC[C@H]1COCOC` (some centres undefined) displayed a TGI of over 100 µM. For the compound `O=C(/C=C\c1ccccc1)Oc1ccc(/C=C2\CCCCC2=O)cc1`, the TGI is over 100 µM. Compound `CC1OC(OC2CCCc3c(O)c4c(c(O)c32)C(=O)c2ccccc2C4=O)CC(N)C1O` (centres undefined) came in with a TGI of 2.24 µM. Still for that read-out and setting: the result for `COc1ccc2oc(=O)c3c(c2c1C)OC(C)(C)C=C3` reads over 100 µM; that for `c1ccc(N=c2sc3ccccc3sc2=Nc2ccccc2)cc1`, 12 µM; that for `CCCNC(C#N)c1ccc(OCCCCCCCCCCOc2ccc(C(C#N)NCCC)cc2)cc1` (centres undefined), over 100 µM. Same read-out and setting: then `COc1c(C)c(C/C=C(\C)CCCCO)c(OC)c(OC)c1OC`, with over 100 µM; and `COc1ccc([C@H]2C=C(c3cc(F)c(Cl)cc3Cl)NC(=S)N2)cc1`, with over 100 µM. Regarding `Fc1ccc(-c2nnc3sc(COc4ccccc4Cl)nn23)cc1Cl`, the GI50 is over 100 µM and the TGI is over 100 µM. `O=C1c2cscc2C(=O)C1(O)O` returned a TGI of over 100 µM. As for `CC1(C)CC(OCCCC[P+](c2ccccc2)(c2ccccc2)c2ccccc2)CC(C)(C)N1O`, the GI50 was 0.894 µM and the TGI was 11.8 µM. Compound `COc1ccc2nc(NC(=O)C(=O)C(C(=O)c3ccccc3-c3ccccc3)C3OC(=O)c4ccccc43)sc2c1` (centres undefined) displayed a TGI of 61.5 µM. `CC1(O)CC2(O)C=CC3=C(C(=O)c4cccc(O)c4C3=O)C2(O)C(=O)C1O` (centres undefined) registered a TGI of 24.2 µM. With `O=c1oc2ccc(Cl)cc2c(=O)n1-c1cc(C(F)(F)F)cc(C(F)(F)F)c1`, the GI50 is 0.312 µM and the TGI was 6.7 µM. `COc1ccc(N2C(=O)c3cccnc3S2(=O)=O)cc1` came in with a TGI of over 100 µM. The compound `COc1cc2nc(-c3ccccc3F)[nH]c(=O)c2cc1OC` came in with a TGI of over 100 µM.

Regarding `COC(=O)c1ccc2c(c1)C(=O)c1c-2n(CCCN)c(=O)c2cc([N+](=O)[O-])ccc12`, the GI50 is 0.795 µM and the TGI was found to be 2.92 µM. The matching figures for `c1ccc(-c2nnc(Nc3ccc4c(c3)OCCO4)o2)c(NCc2ccncc2)c1`: 0.0864 µM and over 100 µM.

Take `CC1(c2nc3ccccc3[nH]2)CCC(C(N)=O)C(C)(C)O1` (centres undefined): the TGI was over 100 µM. Take `Cc1ccc(CC2(OCCN(C)C)CCC(C(C)(C)C)CC2)cc1` (centres undefined): the TGI was 10.7 µM and 5.85 µM.

`CCC1(C(=O)OC)CCc2c(OC)ccc(OC)c2C1=O` (centres undefined) displayed a TGI of over 100 µM. Consider `COc1ccc2c(c1)sc1nc(-c3ccccc3)c(-c3ccc(O)c(OC)c3)n12`, for which the GI50 was over 100 µM and the TGI is over 100 µM.

`CC1=C(C#N)C2C(=C(N)Oc3ccccc32)C(N)=N1` (centres undefined) yielded a TGI of 70 µM. In turn, `COc1cc(C)c2c(=O)c3c(oc2c1)C(=O)c1c(O)c(OC)cc(O)c1C3=O` returned a TGI of 15.5 µM.

The compound `CN(C)c1nc(=NCc2cccs2)ss1` yielded a TGI of over 10 µM. For `CC[C@H](C)[C@@H]1NC(=O)[C@H](Cc2ccc(O)cc2)N(C)C(=O)[C@H](Cc2ccccc2)NC(=O)CN(C)C(=O)[C@@H]2CCCN2C(=O)[C@@H](Cc2ccccc2)N(C)C(=O)[C@H](CC(C)C)NC1=O` (HELM PEPTIDE1{F.[meY].I.L.[CN([C@H](Cc1ccccc1)C(=O)[*:2])[*:1]].P.[Sar]}$PEPTIDE1,PEPTIDE1,1:R1-7:R2$$$V2.0), the GI50 is 0.18 µM and the TGI is 1.99 µM. `CC(C)(C)CC(C)(C)N=C(N)NO` returned a TGI of over 100 µM. Take `ClC1=NC(Cl)C(Cl)=N/C1=N\c1ncn[nH]1` (centres undefined): the GI50 is 7.68 µM and the TGI was 20.6 µM. Regarding `O=C(O)CCCCCO`, the TGI was over 100 µM.

For `CC1(C)N=C(N)N=C(N)N1c1cccc(CCCCc2ccccc2)c1`, the GI50 is 0.537 µM and the TGI is 19.2 µM. The corresponding values for `O=C1c2cc3c(cc2[C@@H]2[C@H]1c1ccc([N+](=O)[O-])cc1C(=O)N2CCCCl)OCO3` are under 0.01 µM and 0.0279 µM. The compound `O=C(O)C1=NNC(C(=O)O)=NN1` displayed a TGI of over 100 µM.

In turn, `CC(=O)OC1C/C(C)=C/CCC(C)/C=C/C2(C)CCC(C(C)(C)O)C12` (centres undefined) yielded a TGI of over 100 µM. On the same count and under the same terms, the result for `O=C(O)c1ccc(NCc2nc3cc4ccccc4cc3[nH]2)cc1` reads over 100 µM; that for `COc1cc([C@@H]2c3cc4c(cc3[C@@H](NCc3ccccc3)C3COC(=O)[C@@H]32)OCO4)cc(OC)c1O` (some centres undefined), over 100 µM. Still for that read-out and setting: then `CCN(CC)CCOC(=O)CCN1CC2CCC(CC2)C1`, with over 100 µM. `CO[C@H]1C[C@@H]2CC[C@@H](C)[C@@](O)(O2)C(=O)C(=O)N2CCCC[C@H]2C(=O)O[C@H]([C@H](C)C[C@@H]2CC[C@@H](OP(C)(C)=O)[C@H](OC)C2)CC(=O)[C@H](C)/C=C(\C)[C@@H](O)[C@@H](OC)C(=O)[C@H](C)C[C@H](C)/C=C/C=C/C=C/1C`: the GI50 was under 0.0149 µM and the TGI was found to be 22 µM. On to `O=C1c2ccccc2-c2n[nH]c3cccc1c23`, for which the GI50 was 20.3 µM and the TGI was over 100 µM.
